Out of some 410,000 compounds screened, about 530 (0.13%) were called active. This list was built around the results that the source calls inconclusive (neither active nor inactive); the mix of calls is not that of the screen. Calls come from the whole dose curve; as a rule, active = well fitted inhibition curve with a large enough effect; inconclusive = small, poorly fitted or top-dose-only effect, or another doubt; inactive = no such curve, though single readings can be large or run the other way. Potencies beside an inconclusive call are fits to weak or partial responses and may not hold up.
Assay: qHTS of GLP-1 Receptor Inverse Agonists: Cytotox Screen
Conditions: HEK293 cAMP-luciferase reporter cells, luminescence, 24 h; activity change, negative = inhibition: at 38.3 µM (top of the series)
How it was run: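 A 23 nL compound transfer followed 12 hours of cell culture at 37 deg C; exposure then lasted 24 hr. Luciferase assay detection reagent was dispensed and plates read for luminescence after a 12 min room-temperature wait.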
% is set by controls: 0 for no effect and ±100 for the full control effect; potency is the fitted concentration of half-maximal effect.

Compound	Potency	activity change, negative = inhibition
O=C(Cc1ccc(-n2cccc2)cc1)NCc1ccccc1Cl	inconclusive: 31.6 µM [inhibitor, single point]	
Cc1ccc(-n2c(Cc3ccccc3)n[nH]c2=S)cc1	inconclusive: 22.4 µM [inhibitor, single point]	
CCCn1c(N)c(C(=O)CSc2nc3ccccc3c(=O)n2Cc2ccccc2)c(=O)[nH]c1=O		inactive: -0.114%
O=C(NCc1ccccc1)C1CCN(S(=O)(=O)Cc2ccccc2)CC1		inactive: -0.242%
Cc1ccc(NC(=O)CSc2nc(=O)cc(N)n2-c2ccccc2)cc1	inactive	
S=c1[nH]ncn1/N=C/c1ccc(Br)cc1	inconclusive: 12.6 µM [inhibitor, single point]	
CCCN(CC(=O)Nc1cccc(Br)c1)CC(=O)Nc1ccc(F)c(F)c1F	inconclusive: 14.1 µM [inhibitor, single point]	
Cn1c(=O)c2cc(S(=O)(=O)NCCC(=O)NC3CCCCCC3)ccc2n(C)c1=O	inconclusive: 8.91 µM [inhibitor, single point]	
COc1ccc(CNC(=O)COC(=O)c2ccc(F)c(S(=O)(=O)N3CCOCC3)c2)cc1		inactive: -3.94%
Cc1ccc2c(c1)N(C(=O)CSc1nncn1C)C(C)(C)c1ssc(=S)c1-2	inconclusive: 8.91 µM [inhibitor, partial curve]	
O=C1NC(=S)SC1=Cc1cc(Br)ccc1O	inconclusive: 11.2 µM [inhibitor, partial curve, poor fit]	
O=C1c2ccc(Cl)cc2S(=O)(=O)c2cccc(C(=O)N3CCN(c4ncc(Br)cn4)CC3)c21	inconclusive: 31.6 µM [inhibitor, partial curve, poor fit]	
CN(C)S(=O)(=O)N(CC(=O)NCCSCc1c(F)cccc1Cl)c1ccccc1		inactive: 2.51%
N#Cc1c(SCc2ccccc2)sc(C(=O)c2ccccc2)c1N	inconclusive: 11.2 µM [inhibitor, partial curve]	
O=C(NCc1cccs1)Nc1cc(Cl)ccc1Cl	active: 10 µM	
COc1ccc2cc(/C=N/NC(=O)CSCc3ccc([N+](=O)[O-])cc3)c(Cl)nc2c1	inconclusive: 2.82 µM [inhibitor, partial curve, poor fit]	
O=C(CSC1=NCCS1)Nc1ccc(S(=O)(=O)N2CCCCCC2)cc1	inconclusive: 12.6 µM [inhibitor, single point]	
COc1ccccc1NC(=O)COc1cc(Br)c(CNCCCN2CCOCC2)cc1OC	inconclusive: 14.1 µM [inhibitor, single point]	
O=C(CCn1c(=O)c2cccn2c2cccnc21)N1CCN(c2ccccc2)CC1		inactive: -1.35%
CCC1CCCCN1CCCNC(=O)c1ccc2nc(N3CCCCC3)sc2c1 (configuration not stated)	inconclusive: 7.08 µM [inhibitor, partial curve, poor fit]	
c1coc(Cn2c(-c3ccco3)nc3ccccc32)c1		inactive: -8.62%

Compound	Potency	activity change, negative = inhibition
NC(=O)[C@H]1CC2(CC(c3cccc(NC(=O)[C@H]4CCC(=O)N4)c3)=NO2)CN1C(=O)c1ccccc1 (some centres not stated)	inconclusive: 28.2 µM [inhibitor, single point]	
COc1cc2[nH]c3c(=O)n(CCN(C(C)C)C(C)C)cnc3c2cc1OC	inconclusive: 12.6 µM [inhibitor, single point]	
CN(C)CCCN(C(=O)/C=C/c1cccs1)c1nc2ccc(F)cc2s1	inconclusive: 11.2 µM [inhibitor, partial curve, poor fit]	
CC(=O)OC1CC2(C)/C(=N\O)CCC2C2CCc3cc(O)ccc3C12 (configuration not stated)	inconclusive: 20 µM [inhibitor, single point]	
CC1(C(=O)N2CCN(c3ccc([N+](=O)[O-])cc3)CC2)CC1(Cl)Cl (configuration not stated)	inconclusive: 28.2 µM [inhibitor, single point]	
Cn1c(-c2ccco2)n[nH]c1=S	inconclusive: 20 µM [inhibitor, single point]	
Cc1nn(Cc2ccc(Cl)c(Cl)c2)c(C)c1NC(=O)c1cc(CC(C)C)on1		inactive: 10.5%
COc1ccc2c(c1)c(CCNNC(=O)C(C)(C)C)c(C)n2C(=O)c1ccc(Cl)cc1	inconclusive: 2.82 µM [inhibitor, partial curve, poor fit]	
Cc1cc(C)cc(N(C(=O)c2ccccn2)C(C(=O)NC2CCCCC2)c2cccs2)c1 (configuration not stated)	inconclusive: 25.1 µM [inhibitor, single point]	
Cc1cc(C)c(CN2CCC(n3nccc3NC(=O)C3CCCC3)CC2)cc1C	inconclusive: 7.94 µM [inhibitor, partial curve, poor fit]	
CC(=O)c1cccc(NC(=S)NC(=O)c2cccc(Cl)c2)c1	inconclusive: 11.2 µM [inhibitor, single point]	
CCOc1cc(CNCCc2ccc(S(N)(=O)=O)cc2)ccc1OCC(=O)NC(C)(C)C	inconclusive: 4.47 µM [inhibitor, partial curve, poor fit]	
O=c1c2ccccc2nc2n1CCCCN2		inactive: -3.74%
CC(C)=CCC1=C(OCC(=O)O)C(=O)c2ccccc2C1=O	inconclusive: 12.6 µM [inhibitor, single point]	
Cc1ccc(S(=O)(=O)c2ccc([N+](=O)[O-])cn2)cc1	inconclusive: 5.62 µM [inhibitor, partial curve]	
CC1(C)C2CCC1(CS(=O)(=O)N1CCC(C(N)=O)CC1)C(=O)C2 (configuration not stated)		inactive: -10.3%
Cn1nc(-c2ccc(C(=O)Nc3cccc(Cl)c3)cc2)c2ccccc2c1=O	inconclusive: 8.91 µM [inhibitor, partial curve, poor fit]	
COc1ccc(NC(=O)c2cc(C)n(Cc3cccs3)c2C)cc1	inconclusive: 20 µM [inhibitor, single point]	
COc1ccc(CN(C(=S)Nc2ccccc2)C2CC(=O)N(c3ccc(Cl)cc3)C2=O)cc1 (configuration not stated)	inconclusive: 12.6 µM [inhibitor, single point]	
C=C(c1ccc2nc(NC(=O)OC)[nH]c2c1)c1cccs1	inconclusive: 0.891 µM [inhibitor, partial curve, poor fit]	
S=C(NCc1ccco1)N/N=C/c1ccccc1Cl	inconclusive: 22.4 µM [inhibitor, single point]	
